Assay in all cases: glycan array binding signal (z-score within array); higher = stronger binding
What all share (conditions): glycan notation: IUPAC condensed, linker removed

The target in assay [1] is Neu5Ac(a2-3)Gal. The method, boiled down: (§1)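 The binding signal is a Z-score computed within each array and averaged over linkers. Arrays of the same protein sequence at different concentrations or buffers were also averaged together. Data originate from 3228 arrays in the Consortium for Functional Glycomics database, kept only where the protein sequence was available.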

Assay [2] concerns the target Neu5Ac(a2-3)Gal(b1-3)GalNAc. The method, boiled down: as §1
Assay [3] addresses Neu5Ac(a2-3)Gal(b1-3)GalNAc(b1-3)Gal(a1-4)Gal(b1-4)Glc. In short, it runs like this: as §1
The target of assay [4] is Neu5Ac(a2-3)Gal(b1-3)GalNAc(b1-4)[Neu5Ac(a2-3)]Gal(b1-4)Glc. In short, it runs like this: as §1
In assay [5] the target is Neu5Ac(a2-3)Gal(b1-3)GalNAc(b1-4)[Neu5Ac(a2-8)Neu5Ac(a2-3)]Gal(b1-4)Glc. In short, it runs like this:
as §1

For assay [6], the target named is Neu5Ac(a2-3)Gal(b1-3)GalNAc6S. In short, it runs like this:
as §1

For assay [7], the target named is Neu5Ac(a2-3)Gal(b1-3)GlcNAc. The method, boiled down:
as §1

The target in assay [8] is Neu5Ac(a2-3)Gal(b1-3)GlcNAc(b1-2)Man. The method, boiled down: as §1
Assay [9] has as its target Neu5Ac(a2-3)Gal(b1-3)GlcNAc(b1-2)Man(a1-3)[GlcNAc(b1-4)][Neu5Ac(a2-3)Gal(b1-3)GlcNAc(b1-2)Man(a1-6)]Man(b1-4)GlcNAc(b1-4)GlcNAc. In short, it runs like this: as §1
The target in assay [10] is Neu5Ac(a2-3)Gal(b1-3)GlcNAc(b1-2)Man(a1-3)[Neu5Ac(a2-3)Gal(b1-3)GlcNAc(b1-2)Man(a1-6)]Man(b1-4)GlcNAc(b1-4)GlcNAc. The method, boiled down: as §1
The target of assay [11] is Neu5Ac(a2-3)Gal(b1-3)GlcNAc(b1-3)Gal(b1-3)GlcNAc. In short, it runs like this: as §1
Assay [12] deals with Neu5Ac(a2-3)Gal(b1-3)GlcNAc(b1-3)Gal(b1-4)GlcNAc. The method, boiled down: as §1
For assay [13], the target named is Neu5Ac(a2-3)Gal(b1-3)GlcNAc(b1-3)GalNAc. The method, boiled down:
as §1

Assay [14] has as its target Neu5Ac(a2-3)Gal(b1-3)GlcNAc(b1-4)Gal(b1-4)Glc. In short, it runs like this: as §1
Assay [15] has as its target Neu5Ac(a2-3)Gal(b1-3)GlcNAc(b1-6)GalNAc. In short, it runs like this: as §1
Assay [16] has as its target Neu5Ac(a2-3)Gal(b1-3)GlcNAc6S. In short, it runs like this:
as §1

Assay [17] addresses Neu5Ac(a2-3)Gal(b1-3)[Fuc(a1-4)]GlcNAc. In short, it runs like this:
as §1

The target in assay [18] is Neu5Ac(a2-3)Gal(b1-3)[Fuc(a1-4)]GlcNAc(b1-3)Gal(b1-3)[Fuc(a1-4)]GlcNAc. In short, it runs like this: as §1
The target of assay [19] is Neu5Ac(a2-3)Gal(b1-3)[Fuc(a1-4)]GlcNAc(b1-3)Gal(b1-4)[Fuc(a1-3)]GlcNAc. In short, it runs like this: as §1
Assay [20] has as its target Neu5Ac(a2-3)Gal(b1-3)[GlcNAc(b1-6)]GalNAc. The method, boiled down: as §1
Assay [21] has as its target Neu5Ac(a2-3)Gal(b1-3)[Neu5Ac(a2-6)]GalNAc. In short, it runs like this:
as §1

Assay [22] addresses Neu5Ac(a2-3)Gal(b1-3)[Neu5Ac(a2-6)]GlcNAc(b1-3)[Fuc(a1-3)[Gal(b1-4)]GlcNAc(b1-6)]Gal(b1-4)Glc. The method, boiled down:
as §1

Experimental findings from the supplement of paper PMC8728848 are described below.

The other results are listed elsewhere or left out.

B1: Gal 3C (Homo sapiens), P17931 (protein)
chain: YGAPAGPLIVPYNLPLPGGVVPRMLITILGTVKPNANRIALDFQRGNDVAFHFNPRFNENNRRVIVCNTKLDNNWGREERQSVFPFESGKPFKIQVLVEPDHFKVAVNDAHLLQYNHRVKKLNEISKLGISGDIDLTSASYTMI
Take B1: the “glycan array binding signal (z-score)” value in assay [1] was -0.314; in [2], -0.318; in assay [3] it was -0.19; in assay [4], -0.209; in assay [5], -0.246; in assay [6] it was -0.328. Further, the “glycan array binding signal (z-score)” value in assay [7] is -0.262; in assay [8] it was -0.298; in assay [9], -0.256; in assay [10], -0.266; in [11] it was -0.032; in assay [12] it was -0.147. Also, the “glycan array binding signal (z-score)” value was -0.212 in [13]; -0.349 in assay [14]; -0.299 in assay [15]; 0.029 in assay [16]; -0.303 in assay [17]; -0.28 in assay [18]. For the same molecule, the “glycan array binding signal (z-score)” value was -0.25 in [19], -0.325 in assay [20], -0.3 in assay [21] and -0.288 in assay [22].
